No constants are given. Whether binding was seen depends on the method and setting. For part of these data: Binding seen in cells or lysates may run through a third protein. Some results given as binding are weak or reduced against the parent protein; the word gives no strength. Sequences can lack the tags named with a protein.
Columns and labels:
GST-GSK3β = GST-GSK3β (UniProt P49841); assay: ELISA; GST-GSK3β (50 nM) held on glutathione-coated 96-well plates overnight at 4 °C; Myc-HK2 0.25-64 nM, 2 h, room temperature; detected with anti-Myc-HRP; G6P (0-100 µM) added for the last 30 min in the inhibition panel; both purified
His-PRKAR1a [1] = biological target: His-PRKAR1a (UniProt P10644); assay: ELISA; His-PRKAR1a (50 nM) held on nickel-coated plates, then Myc-HK2 (32 nM, 2 h) or buffer, then GST-GSK3β (0-64 nM, 2 h); detected with anti-GST-HRP; G6P (0-1000 µM) added for the last 30 min in the inhibition panel; both purified
His-PRKAR1a [2] = biological target: His-PRKAR1a (UniProt P10644); assay: ELISA; His-PRKAR1a (50 nM) held on nickel-coated 96-well plates overnight at 4 °C; Myc-HK2 0.25-64 nM, 2 h, room temperature; detected with anti-Myc-HRP; G6P (0-100 µM) added for the last 30 min in the inhibition panel; both purified
His-PRKAR1a [3] = biological target: His-PRKAR1a (UniProt P10644); assay: ELISA; His-PRKAR1α held on nickel-coated 8-well strips, Myc-HK2; disruptor (FMP-API-1 0-1000 µM, or RIAD) added; bound Myc-HK2 detected with anti-Myc-HRP; both purified
[4] = biological target: myc-GSK3β (glycogen synthase kinase 3 beta), wild type (human) (UniProt P49841); assay: co-IP; HEK293-HK2-HA cells transfected with a myc-tagged protein, 2 h in glucose-free medium with 10 mM glucose or 2-DG; immunoprecipitation with anti-myc, immunoblot with anti-HA or anti-PP2A; IP buffer 50 mM Tris-Cl pH 8.0, 0.5% NP-40, 150 mM NaCl
[5] = biological target: myc-tagged PRKAR1a (regulatory subunit 1a of protein kinase A) (human) (UniProt P10644); assay: as above

The chains behind the UniProt entries cited, without tags or fusion partners.
UniProt P49841: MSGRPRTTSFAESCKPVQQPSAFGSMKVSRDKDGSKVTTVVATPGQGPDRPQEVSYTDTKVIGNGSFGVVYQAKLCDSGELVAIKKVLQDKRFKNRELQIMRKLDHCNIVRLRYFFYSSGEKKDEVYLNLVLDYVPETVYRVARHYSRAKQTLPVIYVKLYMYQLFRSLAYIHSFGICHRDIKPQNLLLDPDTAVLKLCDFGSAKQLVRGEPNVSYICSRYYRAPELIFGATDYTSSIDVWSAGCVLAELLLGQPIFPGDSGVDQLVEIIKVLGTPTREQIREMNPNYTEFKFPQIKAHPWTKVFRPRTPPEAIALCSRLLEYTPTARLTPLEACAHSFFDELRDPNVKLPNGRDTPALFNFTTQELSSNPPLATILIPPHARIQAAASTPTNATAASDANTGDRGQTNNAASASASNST
UniProt P10644: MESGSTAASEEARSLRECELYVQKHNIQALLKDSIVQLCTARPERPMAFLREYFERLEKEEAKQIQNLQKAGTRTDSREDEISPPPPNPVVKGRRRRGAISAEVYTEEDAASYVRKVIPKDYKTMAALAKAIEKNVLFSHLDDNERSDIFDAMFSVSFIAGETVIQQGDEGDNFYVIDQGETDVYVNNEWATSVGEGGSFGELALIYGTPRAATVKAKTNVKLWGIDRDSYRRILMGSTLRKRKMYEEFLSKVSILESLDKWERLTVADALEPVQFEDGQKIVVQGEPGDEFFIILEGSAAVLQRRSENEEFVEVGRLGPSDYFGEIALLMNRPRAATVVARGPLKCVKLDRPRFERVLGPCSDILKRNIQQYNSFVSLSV

binding (GST-GSK3β)	binding (His-PRKAR1a [1])	binding (His-PRKAR1a [2])	binding (His-PRKAR1a [3])	binding [4]	binding [5]	Binder
binds	binds	binds	binds	–	–	Myc-HK2 (enzyme, UniProt P52789 1-917) MIASHLLAYFFTELNHDQVQKVDQYLYHMRLSDETLLEISKRFRKEMEKGLGATTHPTAAVKMLPTFVRSTPDGTEHGEFLALDLGGTNFRVLWVKVTDNGLQKVEMENQIYAIPEDIMRGSGTQLFDHIAECLANFMDKLQIKDKKLPLGFTFSFPCHQTKLDESFLVSWTKGFKSSGVEGRDVVALIRKAIQRRGDFDIDIVAVVNDTVGTMMTCGYDDHNCEIGLIVGTGSNACYMEEMRHIDMVEGDEGRMCINMEWGAFGDDGSLNDIRTEFDQEIDMGSLNPGKQLFEKMISGMYMGELVRLILVKMAKEELLFGGKLSPELLNTGRFETKDISDIEGEKDGIRKAREVLMRLGLDPTQEDCVATHRICQIVSTRSASLCAATLAAVLQRIKENKGEERLRSTIGVDGSVYKKHPHFAKRLHKTVRRLVPGCDVRFLRSEDGSGKGAAMVTAVAYRLADQHRARQKTLEHLQLSHDQLLEVKRRMKVEMERGLSKETHASAPVKMLPTYVCATPDGTEKGDFLALDLGGTNFRVLLVRVRNGKWGGVEMHNKIYAIPQEVMHGTGDELFDHIVQCIADFLEYMGMKGVSLPLGFTFSFPCQQNSLDESILLKWTKGFKASGCEGEDVVTLLKEAIHRREEFDLDVVAVVNDTVGTMMTCGFEDPHCEVGLIVGTGSNACYMEEMRNVELVEGEEGRMCVNMEWGAFGDNGCLDDFRTEFDVAVDELSLNPGKQRFEKMISGMYLGEIVRNILIDFTKRGLLFRGRISERLKTRGIFETKFLSQIESDCLALLQVRAILQHLGLESTCDDSIIVKEVCTVVARRAAQLCGAGMAAVVDRIRENRGLDALKVTVGVDGTLYKLHPHFAKVMHETVKDLAPKCDVSFLQSEDGSGKGAALITAVACRIREAGQR
–	–	–	–	binds	binds	HA-tagged HK2 (rat hexokinase 2) stably expressed in HEK293 cells (enzyme, UniProt P27881 1-917) MIASHMIACLFTELNQNQVQKVDQFLYHMRLSDETLLEISRRFRKEMEKGLGATTHPTAAVKMLPTFVRSTPDGTEHGEFLALDLGGTNFRVLRVRVTDNGLQRVEMENQIYAIPEDIMRGSGTQLFDHIAECLANFMDKLQIKEKKLPLGFTFSFPCHQTKLDESFLVSWTKGFKSSGVEGRDVVDLIRKAIQRRGDFDIDIVAVVNDTVGTMMTCGYDDQNCEIGLIVGTGSNACYMEEMRHIDMVEGDEGRMCINMEWGAFGDDGTLNDIRTEFDREIDMGSLNPGKQLFEKMISGMYMGELVRLILVKMAKAELLFQGKLSPELLTTGSFETKDVSDIEEDKDGIEKAYQILMRLGLNPLQEDCVATHRICQIVSTRSASLCAATLAAVLWRIKENKGEERLRSTIGVDGSVYKKHPHFAKRLHKAVRRLVPDCDVRFLRSEDGSGKGAAMVTAVAYRLADQHRARQKTLESLKLSHEQLLEVKRRMKVEMEQGLSKETHAVAPVKMLPTYVCATPDGTEKGDFLALDLGGTNFRVLLVRVRNGKRRGVEMHNKIYSIPQEVMHGTGEELFDHIVQCIADFLEYMGMKGVSLPLGFTFSFPCQQNSLDQSILLKWTKGFKASGCEGEDVVTLLKEAIHRREEFDLDVVAVVNDTVGTMMTCGYEDPHCEVGLIVGTGSNACYMEEMRNVELVDGEEGRMCVNMEWGAFGDNGCLDDLRTVFDVAVDELSLNPGKQRFEKMISGMYLGEIVRNILIDFTKRGLLFRGRISERLKTRGIFETKFLSQIESDCLALLQVRAILRHLGLESTCDDSIIVKEVCTVVARRAAQLCGAGMAAVVDKIRENRGLDNLKVTVGVDGTLYKLHPHFAKVMHETVRDLAPKCDVSFLESEDGSGKGAALITAVACRIREAGQR

Reference: paper PMC8850586
